The list shows a part of the results. Sequences were assembled here from the parent chain. Inactive controls read about 0.05.
B1: TEV protease; numbered along this chain (parent)
chain: MGESLFKGPRDYNPISSSICHLTNESDGHTTSLYGIGFGPFIITNKHLFRRNNGTLVVQSLHGVFKVKDTTTLQQHLVDGRDMIIIRMPKDFPPFPQKLKFREPQREERICLVTTNFQTKSMSSMVSDTSCTFPSGDGIFWKHWIQTKDGQCGSPLVSTRDGFIVGIHSASNFTNTNNYFTSVPKNFMELLTNQEAQQWVSGWRLNADSVLWGGHKVFMVKPEEPFQPVKEATQL

Variants of: B1
Test: raw area under fraction-flipped curve 0-4 h after induction (AUC4h, not background-subtracted), DNA-recorder readout of cleavage of the substrate (dimensionless); higher = more cleavage of the substrate by the protease variant
Settings: temperature: 34 °C; time window: 0-4 h after rhamnose induction
Description: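 In vivo DNA recorder in E. coli TOP10(DE3) ΔrhaA at 34 °C. Each TEVp single-site mutant (parent TEVp 0) is paired with a single-site variant of the 7-mer TEVs (canonical ENLYFQ|S). The substrate sits between flexible linkers in a Bxb1-sfGFP-TEVs-SsrA fusion, so cleavage stabilises Bxb1 and speeds flipping of a recombination array, read by NGS. The value is the raw area under the fraction-flipped curve over 0-4 h after rhamnose induction (AUC4h), with ≥20 reads per time point. It is not background-subtracted; inactive controls average about 0.047.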
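Note: Bxb1 expression induced with 0.2% (w/v) L-rhamnose at OD600 near 0.5, cultures sampled hourly, flipped fraction per protease–substrate barcode pair counted by paired-end Illumina sequencing.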

Row | Variant | area with substrate ENLAFQS | area with substrate ENLCFQS | area with substrate ENLDFQS | area with substrate ENLEFQS | area with substrate ENLFFQS | area with substrate ENLHFQS | area with substrate ENLKFQS | area with substrate ENLNFQS | area with substrate ENLPFQS | area with substrate ENLRFQS | area with substrate ENLSFQS | area with substrate ENLWFQS | area with substrate ENLGFQS | area with substrate ENLMFQS | area with substrate ENLIFQS | area with substrate ENLLFQS | area with substrate ENLQFQS | area with substrate ENLTFQS | area with substrate ENLVFQS
1 | MGESLFKGPRDYNPISSSICHATNESDGHTTSLYGIGFGPFIITNKHLFRRNNGTLVVQSLHGVFKVKDTTTLQQHLVDGRDMIIIRMPKDFPPFPQKLKFREPQREERICLVTTNFQTKSMSSMVSDTSCTFPSGDGIFWKHWIQTKDGQCGSPLVSTRDGFIVGIHSASNFTNTNNYFTSVPKNFMELLTNQEAQQWVSGWRLNADSVLWGGHKVFMVKPEEPFQPVKEATQL [L22A] | 0.0418 | 0.063 | 0.0568 | 0.0582 | 0.0546 | 0.0571 | 0.0576 | 0.0504 | 0.0572 | 0.0573 | 0.0525 | 0.024 |  |  |  |  |  |  | 
2 | MGESLFKGPRDYNPISSSICHLTNESDGHTRSLYGIGFGPFIITNKHLFRRNNGTLVVQSLHGVFKVKDTTTLQQHLVDGRDMIIIRMPKDFPPFPQKLKFREPQREERICLVTTNFQTKSMSSMVSDTSCTFPSGDGIFWKHWIQTKDGQCGSPLVSTRDGFIVGIHSASNFTNTNNYFTSVPKNFMELLTNQEAQQWVSGWRLNADSVLWGGHKVFMVKPEEPFQPVKEATQL [T31R] | 0.0679 | 0.0732 | 0.0644 |  | 0.07 | 0.0392 | 0.0464 | 0.0604 |  | 0.0514 | 0.06 | 0.0607 | 0.128 | 0.0474 |  |  |  |  | 
3 | MGESLFKGPRDYNPISSSICHLTNESDGHTGSLYGIGFGPFIITNKHLFRRNNGTLVVQSLHGVFKVKDTTTLQQHLVDGRDMIIIRMPKDFPPFPQKLKFREPQREERICLVTTNFQTKSMSSMVSDTSCTFPSGDGIFWKHWIQTKDGQCGSPLVSTRDGFIVGIHSASNFTNTNNYFTSVPKNFMELLTNQEAQQWVSGWRLNADSVLWGGHKVFMVKPEEPFQPVKEATQL [T31G] | 0.0618 |  | 0.0709 | 0.0554 | 0.116 |  | 0.0653 | 0.0566 | 0.0597 | 0.107 | 0.0821 | 0.0413 |  | 0.077 | 0.0588 | 0.0661 | 0.0662 | 0.0468 | 0.0698
4 | MGESLFKGPRDYNPISSSICHLTNESDGHTCSLYGIGFGPFIITNKHLFRRNNGTLVVQSLHGVFKVKDTTTLQQHLVDGRDMIIIRMPKDFPPFPQKLKFREPQREERICLVTTNFQTKSMSSMVSDTSCTFPSGDGIFWKHWIQTKDGQCGSPLVSTRDGFIVGIHSASNFTNTNNYFTSVPKNFMELLTNQEAQQWVSGWRLNADSVLWGGHKVFMVKPEEPFQPVKEATQL [T31C] | 0.0584 | 0.0806 | 0.0659 | 0.0619 | 0.0856 | 0.0591 | 0.083 | 0.053 | 0.0799 | 0.0786 | 0.0375 |  |  |  | 0.0836 |  | 0.0801 |  | 0.0868
5 | MGESLFKGPRDYNPISSSICHLTKESDGHTTSLYGIGFGPFIITNKHLFRRNNGTLVVQSLHGVFKVKDTTTLQQHLVDGRDMIIIRMPKDFPPFPQKLKFREPQREERICLVTTNFQTKSMSSMVSDTSCTFPSGDGIFWKHWIQTKDGQCGSPLVSTRDGFIVGIHSASNFTNTNNYFTSVPKNFMELLTNQEAQQWVSGWRLNADSVLWGGHKVFMVKPEEPFQPVKEATQL [N24K] | 0.0463 | 0.0601 | 0.0609 | 0.0638 | 0.0656 | 0.066 | 0.0726 | 0.0584 | 0.0557 | 0.0595 |  | 0.0651 | 0.0622 | 0.0602 | 0.0408 | 0.0573 | 0.0516 | 0.0699 | 0.0755
6 | MGESLFKGPRDYNPISSSICHLTNESDMHTTSLYGIGFGPFIITNKHLFRRNNGTLVVQSLHGVFKVKDTTTLQQHLVDGRDMIIIRMPKDFPPFPQKLKFREPQREERICLVTTNFQTKSMSSMVSDTSCTFPSGDGIFWKHWIQTKDGQCGSPLVSTRDGFIVGIHSASNFTNTNNYFTSVPKNFMELLTNQEAQQWVSGWRLNADSVLWGGHKVFMVKPEEPFQPVKEATQL [G28M] | 0.0569 | 0.0747 | 0.0662 |  | 0.0659 | 0.0741 | 0.0793 | 0.0578 |  | 0.0757 | 0.0584 |  | 0.0571 |  | 0.0683 | 0.0638 |  | 0.0727 | 
7 | MGESLFKGPRDYNPISSSICHLTNESDHHTTSLYGIGFGPFIITNKHLFRRNNGTLVVQSLHGVFKVKDTTTLQQHLVDGRDMIIIRMPKDFPPFPQKLKFREPQREERICLVTTNFQTKSMSSMVSDTSCTFPSGDGIFWKHWIQTKDGQCGSPLVSTRDGFIVGIHSASNFTNTNNYFTSVPKNFMELLTNQEAQQWVSGWRLNADSVLWGGHKVFMVKPEEPFQPVKEATQL [G28H] | 0.0682 |  | 0.0626 | 0.064 | 0.0776 | 0.0694 | 0.0651 |  | 0.0687 | 0.0738 | 0.0688 | 0.0693 |  |  | 0.0778 | 0.0865 |  |  | 
8 | MGESLFKGPRDYNPISSSICHLTNESDSHTTSLYGIGFGPFIITNKHLFRRNNGTLVVQSLHGVFKVKDTTTLQQHLVDGRDMIIIRMPKDFPPFPQKLKFREPQREERICLVTTNFQTKSMSSMVSDTSCTFPSGDGIFWKHWIQTKDGQCGSPLVSTRDGFIVGIHSASNFTNTNNYFTSVPKNFMELLTNQEAQQWVSGWRLNADSVLWGGHKVFMVKPEEPFQPVKEATQL [G28S] | 0.0697 | 0.0682 | 0.054 | 0.0651 | 0.0811 | 0.0681 | 0.0691 | 0.0539 | 0.0518 | 0.0704 | 0.0623 | 0.0652 | 0.0661 | 0.0613 | 0.0732 |  |  | 0.0461 | 
9 | MGESLFKGPRDYNPISSSICHLTNESVGHTTSLYGIGFGPFIITNKHLFRRNNGTLVVQSLHGVFKVKDTTTLQQHLVDGRDMIIIRMPKDFPPFPQKLKFREPQREERICLVTTNFQTKSMSSMVSDTSCTFPSGDGIFWKHWIQTKDGQCGSPLVSTRDGFIVGIHSASNFTNTNNYFTSVPKNFMELLTNQEAQQWVSGWRLNADSVLWGGHKVFMVKPEEPFQPVKEATQL [D27V] | 0.0574 | 0.0708 | 0.075 | 0.0547 | 0.071 |  | 0.071 | 0.0587 | 0.0542 |  | 0.0571 | 0.072 |  | 0.0621 | 0.0682 | 0.0554 | 0.0694 |  | 
